Results taken from the supplement of paper PMC3334620.
Over roughly 33,000 sequences, “E-score (-0.5 to 0.5)” has its median near -0.016; the highest 2% begin near 0.31. The list shows a part of the results.

target: Cst6 (UniProt P40535); assay: PBM E-score (8-mer binding enrichment) (E-score (-0.5 to 0.5)); higher = stronger / more preferred TF binding; most listed sequences are background and not binding sites; settings: protein concentration: 200 nM; construct: GST-DNA-binding domain
How it was run: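 Universal all-10-mer Agilent arrays, fresh or stripped once, were converted to double-stranded form by primer extension. GST-tagged yeast transcription factors from PURExpress in vitro transcription/translation, full-length or DNA-binding domain only, were applied at about 100-200 nM and detected with fluorescent anti-GST. After masliner normalisation, the Universal PBM Analysis Suite scored each ungapped eight-base word together with its reverse complement by E-score.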

Sequence	PBM E-score
CATGTAGA	0.0765
GCTGGATA	-0.1
ATCTGCAC	-0.138
GACTTTCC	-0.0331
AGACGATG	0.0839
CACCACAC	0.00439
CGTGACAG	0.0907
ATCCGACA	-0.144
AGCGCGGG	-0.0965
CCGAAGCA	-0.0309
CAACATTG	0.0777
AACCGTCC	-0.298
ATTAAGAG	0.0898
ACCAGCCC	-0.169
GATGCCAC	0.158
AGTTTCGC	-0.00823
ACCTTAAC	0.0629
GGTGTATA	-0.195
GCATTTAA	0.153
CCATCGCG	0.128
GAAGTCCA	-0.303

Sequence	PBM E-score
AGAAGGCA	0.0312
CCGAGCAC	-0.263
AGCGCCGC	0.309
CACCCGAA	0.0623
AATGCCGA	0.041
GTCGTCGA	-0.00727
AGCAGAGA	-0.00014
GGCGAAAA	0.126
ACGAAATG	0.0827
ACGCTGTA	0.129
ACGTAGGA	0.267
CTTTAGAA	0.0739
CTGCCGCA	0.0518
CTATAATC	0.058
GCCCAGGA	-0.159
TAACTATA	0.104
GCGGCAGC	-0.104
GACTAGCA	-0.131
AATCGAAT	0.149
CCGGCTAA	-0.0511
AACGCACT	0.154

Sequence	PBM E-score
CTGGGACA	-0.219
TAGCGCAA	0.122
GCGTATTA	0.0768
GTAGCGCA	-0.0108
AAACTTCT	0.169
GGCAAGCC	-0.127
AATTTGTG	0.0781
AAGGACAA	0.0775
CGGCTTAG	-0.171
ACTCCCTA	0.00704
CCTAACAC	0.106
AGTACGCC	-0.0182
ACGGTCTC	-0.219
ATTAGTCG	0.169
CACATCAG	-0.0727
GGGTAGTA	-0.251
TTAGGCAA	-0.00879
CCATACGG	0.237
ACAACACG	0.135
AGATTTAT	0.195
AACATAAA	0.147

Sequence	PBM E-score
GGGGACGA	-0.19
AATTACAA	0.181
CGCACACC	-0.0563
ACGGCTTA	0.203
AGACACGA	0.0491
ATCTACCG	0.0145
TGACTGAA	0.0758
AACTAGAG	0.00307
GGGATGCA	-0.308
ACAATCTA	0.0502
CATCTGGG	-0.143
GCTTAGCC	-0.243
CCGAGTGA	0.0419
GATACTCA	0.0144
GACTCGCC	-0.223
ACTAGAGG	-0.213
GGGAGCGA	-0.225
GATCTAAA	0.077
ATCACTCA	0.138
